The full ranking holds about 2,700 sequences; the median of “arbitrary fluorescence units” is about 4,100, and the highest 2% start at about 54,000. Some of the results follow.
target: T1, ETS1 (UniProt P14921); test: ETS1 binding intensity (PBM fluorescence) (arbitrary fluorescence units); higher = stronger binding; conditions: ETS1 concentration 10 nM
T1 sequence: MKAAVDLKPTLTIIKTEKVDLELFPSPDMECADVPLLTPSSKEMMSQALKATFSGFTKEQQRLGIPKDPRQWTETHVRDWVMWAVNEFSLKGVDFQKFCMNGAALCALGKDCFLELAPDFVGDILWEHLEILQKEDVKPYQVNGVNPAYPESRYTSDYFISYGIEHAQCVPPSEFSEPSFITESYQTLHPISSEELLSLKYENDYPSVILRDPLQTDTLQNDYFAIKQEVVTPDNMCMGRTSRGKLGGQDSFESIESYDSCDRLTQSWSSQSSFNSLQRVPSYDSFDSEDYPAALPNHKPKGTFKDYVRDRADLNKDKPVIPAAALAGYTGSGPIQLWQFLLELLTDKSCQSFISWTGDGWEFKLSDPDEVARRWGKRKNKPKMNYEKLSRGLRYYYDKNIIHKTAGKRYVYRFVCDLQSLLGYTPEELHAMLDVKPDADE
Description: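 gcPBM on wild-type 36-bp genomic probes with two neighbouring ETS1 sites (4-24 bp apart). Recombinant human ETS1 (10 nM) was detected with anti-ETS1 antibody fluorescence. Values are medians over 3 replicate spots. The probes sit in constant array flanks that are not printed.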

Row | Sequence | ETS1 binding intensity
1 | TGGCAGTTAGAACAGGAAGGAAGTCAATGAGAAAAA | 1070
2 | CAACGGCAGCTTCCTGCGGCGCCGGAAACGCTTCAA | 12100
3 | AGATATTGTGTACTTCCCCTTCCTGTTGTGGTTGGC | 4130
4 | GCTTTTCATACTTCCTGCTTGAGGAAGCTGCTACTG | 27000
5 | TTACACTACTTCCGCCGCCTCACTTCCGGTGACGCG | 34100
6 | AAAAACCACTTCCGCGTTCGTCACTTCCGCTGCCGG | 23700
7 | AATGGCAACTTCCTGATTCAGTGCTTCCTGATTGTG | 16000
8 | CCGGGAGCTCCGGATGCAGACAGGAAGTGGGCAGGG | 9950
9 | CAAATCAGGAAGAGGACCCTCAACAGGAACTGAATC | 234
10 | CTCACATCCGTTTGTGGCTGCCGAGTGCTTCCTGGG | 17100
11 | CTGGGCGGGGCGGAAAAAATACTTCCCGTCTCTCCT | 1470
12 | CTGAGGGAAGTTTGCCTGAGACCTGGCTTCCTGCTC | 365
13 | GAAGCGGAAATCAATCAGGCTGTCACCCTTCCTGTA | 3710
14 | GGGCGCACTTCCGCGGCCGCTCTAGGAAGGGAGCGA | 7340
15 | TTTCTGTCCGTTTCCGACAAACTTCCCGCGCTCTTC | 2630
16 | CCCCAGGAAGAGCGCGCCGGGCGCCGACTTCCCCTG | 225
17 | CAACCGAAAACATCCCGTGCCGGAAGCGCGTCATCG | 4780
18 | CCCGCCCACCTTTCCTGGGGCGGATGCGTTCCCGCA | 509
19 | TAGGCATGTATTTCCTCAAACTTCCTCATACTTGTT | 1460
20 | TGGGCGGCCGGATGAGGTCAGAGCGGAAGGCGCGGC | 2260
21 | TTCCACTCTGATTTCCTGTACTTCCCAAGGTCTGCC | 13400
22 | GGCGAGAGGAGGAAGCACCGGCGGAAACCCGAGGGA | 464
23 | AACTGACAGGAAGAGGCGGGGCCCTTCCTGTGGCGC | 2430
24 | TACATCATCCTGTACAGAGGGAGTCAGGAAAAGGAA | 3210
25 | TCGGCGCCGGAAGTGAGTGAGCATTTCCGGCAGCCA | 22300
26 | GACATTTCCCAGATGTGGTTTGTGGTCGGATGCCCC | 274
27 | CAGGAGGGAACAGGAAAAACAGGAACTCACTGTCTC | 328

Row | Sequence | ETS1 binding intensity
28 | TGCATATCCTGGAACTCCACATTTCCTCCTGGTGAC | 8830
29 | ATGGCTGCCCACATCCTGGTTTCCTCTCTCCGAGCA | 8310
30 | TTTAACACGTTTCCCAGGCAACAGGAAGCTCTCAGT | 465
31 | GGACAGGAAAGCGCAGCCGCGCACGGGTTTCCTCTC | 458
32 | CTGACCTGCTTCCTCATGGTTGTTTCCTGCCTATTG | 3740
33 | TTGTCCTTCCGGCTAGCTTCTCTTGACTTCCTGGCA | 16000
34 | TCCATTTCCTGCCTCAGTGTGAGTGGCAGGAAGACC | 48700
35 | TTCAGGATGAGTCATCCATTTCCTGCCAAGAACAAT | 9570
36 | GACATCACCAGGATGCTATGTGCTTCCTCTGAAGTA | 414
37 | CCTGCTCGGAAGTCTACGAGGACGCTTCCGGGTCAC | 1770
38 | GCACACAGGAAGCTCCTCCCCTCACAGGATGTATGC | 6480
39 | GAGAGAGTGGAGCAGGAAGGAAGCCGGGGCCCTGAA | 288
40 | AGCAACTTCCGGTGCGCTTAGCGTTACTTCCGGCGC | 116000
41 | AAGTCAGGAAACAACAGATGCTGGAGAGGATGTGCA | 365
42 | CAAACTAACATATCCTGAGCACTTCCTGTGTGACTA | 9810
43 | ACGTTGCTTCCGGTGCCTGGCTCCGTTTCCTGCTTT | 51300
44 | CCCTAGTAGTTCCGCTCCGAGGGCGGAAGTGCGCGT | 7820
45 | CCCGGGCAGCGGAAATGGTTAGCTTCCTCTAGGAGT | 8910
46 | GAAACGGAAGTGCGCGCCGAGGCTCCTGGGAAATGT | 8250
47 | GCCGGCGGAAGTGCTGCGTCGCGCACTTCCGGGTGT | 16200
48 | TTCCCACATCATCCTGTTGATTCATCCGCTCAAACA | 2570
49 | CCACCCTGCTTCCTGCTTAACCATTTCCTGCTGACT | 15300
50 | ACCGGGCGGTGAGGAAGCTCCGGAAATACATCGTCG | 1930
51 | CGTTTCGACATCCTGCCTGACGTCTTCCTGTAGCAT | 20900
52 | GGTAAGTTCTACAGGAAACAGGAAACATGGTTTAAC | 4210
53 | CCCAGGGCCTTCCGCGTCCTCCTGTTCCGGCAGGAG | 571
54 | GTGATTCACATCCTCTGTTCCCCAGGATGACTCAAC | 6200

Row | Sequence | ETS1 binding intensity
55 | CCCACTTCCGGCAACAAGATAGAGCACTTCCGTCAA | 77600
56 | AATTAGAACGACTTCCCCACTTCCGTCGGGTTCCAC | 4860
57 | AGGGAACGAGTGCAGGAAGGAAGTGAGAGAGTTCTG | 297
58 | TAAGTAGCTTCCTGTATCTAACACAGGATGTTGAAA | 17800
59 | CAGAGGCACAGGAAGACAAGACTTCCTGCACCCAGC | 5110
60 | CAGCCACTTCCTGGTACCCAAGGCCGGAAGTCCCTT | 21000
61 | GGCTGGCAGGAACTTCACCATGTATTTCCGCTAGAA | 2210
62 | CTTTTTTCACTTCCCTCCTCCCATCCGGCCAGGACA | 4630
63 | CAGTTGGTCTGCCAGGAAGGAAGTCGGCTCAGGGGA | 354
64 | TTTGTTGAAAGACTTCCTACTTCCTCTTTGACTCAT | 5830
65 | CAGCCTCTAGGTTCCGCCAATTTCCTGGTTGCTAAC | 1830
66 | CGGCCGGAAATGCGCGCGCGGCTCTCTGGGAAATGG | 18800
67 | CAGGGACGCGCGAGGAAACCGGAAGTCAGGCCCGAG | 17000
68 | GAGACAGGAAGAGCCAAAAAACTACATTTCCCAGTC | 4740
69 | TCCAAGAGGAAGTGAGCGGTGCAAAGGAAGCCAGGA | 3030
70 | AATGCCCTTCCTGTTGAGAGCCAGCAGGAAGGCTGG | 16300
71 | ATCCAGCTATTCAGGAAGCGGAAGCAGGAGAGTCGC | 2030
72 | ATGTATTCCGGCTCCTCCTCCCTCAGCAGGAAGCCA | 1290
73 | GGGGCGGCTCGGAAACCCCAGCGGAAGGCAGCAAGG | 183
74 | TCCGAGGCCGGAAGTCAGAAGGCGGAAGTGAACTGC | 26400
75 | ACATAAGGGAGGAAGAGTGTCATATCCTTTCAATTG | 320
76 | AGACGAACCGGAAACGAACCCCATTTCCGGCCTGGG | 37300
77 | TCACTTCCGCCATGAGGGCTTCAGCTGCATCCTGTT | 37400
78 | AGAACAGGATGTAACAAAATAATCTATTTCCGGCAT | 17800
79 | GGACTCGGCGCTCGGAAGCGGAAGCCGCTCCGCCCC | 1150
80 | AGTCACTTCCTCTCTCTAGGCATCGGTTTCCTCTTC | 20200

Reference: the supplement of paper PMC10681739
